In US11178870B2 (priority 2017, dated 2021):

Tests used:
Magnaporthe grisea = assay type: in vivo; details: Table 7, Test A
Phytophthora infestans = assay type: in vivo; details: Table 7, Test F
[1] = tested on: Colletotrichum orbiculare; details: 250 ppm sprayed (2.5 ml/pot) before inoculation; assessed 6 to 10 days after inoculation

Structure (SMILES)	control value, Test A (blast on rice) (Magnaporthe grisea)	control value, Test F (late blight on tomato) (Phytophthora infestans)	control value, Test H (anthracnose on cucumber) [1]
CCn1c(-c2c(F)cc(OC)cc2F)c(-n2cc(F)cn2)cc(Cl)c1=O [Compound 314]	H (H shows the control value more than 50%)	L (L shows the control value of 50% or less)	H (H shows the control value more than 50%)
CCn1c(-c2c(F)cccc2F)c(-n2cc(F)cn2)cc(Cl)c1=O [Compound 319]	H (H shows the control value more than 50%)	L (L shows the control value of 50% or less)	H (H shows the control value more than 50%)
O=c1ccc(-c2ccsc2Br)c(-c2c(F)cccc2F)n1CC(F)F [Compound 323]	H (H shows the control value more than 50%)	–	–
